# Test results published in the supplement of paper PMC8728848.
# The list shows a part of the results.
# B1: PX9937D-bvu-500-26-500 (Bacteroides vulgatus) (protein)
# chain: DPVSDITDLNYWKTPEQFDSFVFGLHSRFRSHSWNMFLLGEARSDVFGGIPFGGEATQGMERFPYNTLNAENPGISGFGDLYQNINQMNLFISRTLHTDVLTESARNYYLGQVYGLRAYYMYQLYRSWGDVVFTEEPSLGFEVGKLAKAATPAAEIFEQVKKDIESSLSYFGSDYTIKEKKSLWSKAATLMLKADVYLWSAHRDGGEGDARTAKNALVDIQNNISRSNLDLMDTYQGVFAYDNKGNKEIIFTIHNELFEYNLWNGNNDLFPQADYLGKFYNADGTLINTSVENNFGIMRLMVKLENFKKFLPGDTRRDVTLKDVYNKVENGKLELVGVYPHKYWGVMNGSTRVRCDDYPIYRYSDLLLMLAEAKVLLGEDPATEINRVRRRAFGDAYDASTVGFPNQEVDKRPADAVLQERLFEFMLEGKRWYDLRRFGDSYVLDYTPAEPARLLWPINQGALTNNPLLKQTVGY
# Experiments:
# Assay in all cases: glycan array binding signal (z-score within array); higher = stronger binding
# Conditions in all cases: glycan notation: IUPAC condensed, linker removed
# Fuc(a1-3)GlcNAc = biological target: Fuc(a1-3)GlcNAc
# Outline: (§1)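 Glycan array binding is given as a within-array Z-score, which can be read as non-binding when negative. The arrays, 3228 of them, came from the Consortium for Functional Glycomics database and were retained only where the protein sequence was available. Z-scores were averaged across arrays of the same protein sequence at different concentrations or buffers and across linkers.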
# [1] = biological target: Fuc(a1-3)[Gal(b1-4)]Glc6S
# Outline: as §1
# [2] = biological target: Fuc(a1-3)[Gal(b1-4)]GlcNAc
# Outline: as §1
# [3] = biological target: Fuc(a1-3)[Gal(b1-4)]GlcNAc(b1-2)Man
# Outline: as §1
# [4] = biological target: Fuc(a1-3)[Gal(b1-4)]GlcNAc(b1-2)Man(a1-3)[Fuc(a1-3)[Gal(b1-4)]GlcNAc(b1-2)Man(a1-6)]Man(b1-4)GlcNAc(b1-4)GlcNAc
# Outline: as §1
# [5] = biological target: Fuc(a1-3)[Gal(b1-4)]GlcNAc(b1-2)Man(a1-3)[Fuc(a1-3)[Gal(b1-4)]GlcNAc(b1-2)Man(a1-6)]Man(b1-4)GlcNAc(b1-4)[Fuc(a1-6)]GlcNAc
# Outline: as §1
# [6] = biological target: Fuc(a1-3)[Gal(b1-4)]GlcNAc(b1-3)Gal(b1-3)[Fuc(a1-4)]GlcNAc
# Outline: as §1
# [7] = biological target: Fuc(a1-3)[Gal(b1-4)]GlcNAc(b1-3)Gal(b1-4)[Fuc(a1-3)]GlcNAc
# Outline: as §1
# [8] = biological target: Fuc(a1-3)[Gal(b1-4)]GlcNAc(b1-3)Gal(b1-4)[Fuc(a1-3)]GlcNAc(b1-3)Gal(b1-4)[Fuc(a1-3)]GlcNAc
# Outline: as §1
# [9] = biological target: Fuc(a1-3)[Gal(b1-4)]GlcNAc(b1-3)GalNAc
# Outline: as §1
# [10] = biological target: Fuc(a1-3)[Gal(b1-4)]GlcNAc(b1-6)GalNAc
# Outline: as §1
# [11] = biological target: Fuc(a1-3)[Gal(b1-4)]GlcNAc(b1-6)[Gal(b1-3)GlcNAc(b1-3)]Gal(b1-4)Glc
# Outline: as §1
# [12] = biological target: Fuc(a1-3)[Gal(b1-4)]GlcNAc6S
# Outline: as §1
# [13] = biological target: Fuc(a1-3)[Gal3S(b1-4)]Glc
# Outline: as §1
# [14] = biological target: Fuc(a1-3)[Gal3S(b1-4)]GlcNAc
# Outline: as §1
# [15] = biological target: Fuc(a1-3)[Gal3S(b1-4)]GlcNAc6S
# Outline: as §1
# [16] = biological target: Fuc(a1-3)[GalNAc(b1-4)]GlcNAc
# Outline: as §1
# [17] = biological target: Fuc(a1-3)[GalNAc(b1-4)]GlcNAc6S
# Outline: as §1
# Fuc(a1-4)GlcNAc = biological target: Fuc(a1-4)GlcNAc
# Outline: as §1
# Fuc(b1-3)GlcNAc = biological target: Fuc(b1-3)GlcNAc
# Outline: as §1
# Gal(a1-2)Gal = biological target: Gal(a1-2)Gal
# Outline: as §1
# Gal(a1-3)Gal = biological target: Gal(a1-3)Gal
# Outline: as §1
# Gal(a1-3)Gal(b1-3)GlcNAc = biological target: Gal(a1-3)Gal(b1-3)GlcNAc
# Outline: as §1
# [18] = biological target: Gal(a1-3)Gal(b1-3)GlcNAc(b1-2)Man
# Outline: as §1
# [19] = biological target: Gal(a1-3)Gal(b1-3)GlcNAc(b1-2)Man(a1-3)[Gal(a1-3)Gal(b1-3)GlcNAc(b1-2)Man(a1-6)]Man(b1-4)GlcNAc(b1-4)GlcNAc
# Outline: as §1
# [20] = biological target: Gal(a1-3)Gal(b1-3)GlcNAc(b1-3)GalNAc
# Outline: as §1
# [21] = biological target: Gal(a1-3)Gal(b1-3)GlcNAc(b1-6)GalNAc
# Outline: as §1
# [22] = biological target: Gal(a1-3)Gal(b1-3)[Fuc(a1-4)]GlcNAc(b1-2)Man(a1-3)[Gal(a1-3)Gal(b1-3)[Fuc(a1-4)]GlcNAc(b1-2)Man(a1-6)]Man(b1-4)GlcNAc(b1-4)GlcNAc
# Outline: as §1
# Gal(a1-3)Gal(b1-4)Glc = biological target: Gal(a1-3)Gal(b1-4)Glc
# Outline: as §1
# Gal(a1-3)Gal(b1-4)GlcNAc = biological target: Gal(a1-3)Gal(b1-4)GlcNAc
# Outline: as §1
binder,measurement,setting,value
B1,glycan array binding signal (z-score),Fuc(a1-3)GlcNAc,-0.105
same,glycan array binding signal (z-score),[1],0.181
same,glycan array binding signal (z-score),[2],-0.094
same,glycan array binding signal (z-score),[3],-0.17
same,glycan array binding signal (z-score),[4],6.27
same,glycan array binding signal (z-score),[5],0.82
same,glycan array binding signal (z-score),[6],-0.213
same,glycan array binding signal (z-score),[7],-0.296
same,glycan array binding signal (z-score),[8],0.139
same,glycan array binding signal (z-score),[9],-0.063
same,glycan array binding signal (z-score),[10],0.122
same,glycan array binding signal (z-score),[11],-0.353
same,glycan array binding signal (z-score),[12],-0.212
same,glycan array binding signal (z-score),[13],-0.187
same,glycan array binding signal (z-score),[14],-0.286
same,glycan array binding signal (z-score),[15],0.002
same,glycan array binding signal (z-score),[16],0.015
same,glycan array binding signal (z-score),[17],-0.222
same,glycan array binding signal (z-score),Fuc(a1-4)GlcNAc,-0.443
same,glycan array binding signal (z-score),Fuc(b1-3)GlcNAc,-0.499
same,glycan array binding signal (z-score),Gal(a1-2)Gal,-0.519
same,glycan array binding signal (z-score),Gal(a1-3)Gal,-0.287
same,glycan array binding signal (z-score),Gal(a1-3)Gal(b1-3)GlcNAc,0.353
same,glycan array binding signal (z-score),[18],4.49
same,glycan array binding signal (z-score),[19],0.166
same,glycan array binding signal (z-score),[20],-0.65
same,glycan array binding signal (z-score),[21],-0.681
same,glycan array binding signal (z-score),[22],0.78
same,glycan array binding signal (z-score),Gal(a1-3)Gal(b1-4)Glc,-0.457
same,glycan array binding signal (z-score),Gal(a1-3)Gal(b1-4)GlcNAc,-0.573
